# Source: the supplement of paper PMC3334620
# The full ranking holds about 33,000 sequences; the median of “E-score (-0.5 to 0.5)” is about -0.035, and the highest 2% start at about 0.35. This is one part of the list.
# Molecular target: T1, Pdr3 (UniProt P33200)
# T1 sequence: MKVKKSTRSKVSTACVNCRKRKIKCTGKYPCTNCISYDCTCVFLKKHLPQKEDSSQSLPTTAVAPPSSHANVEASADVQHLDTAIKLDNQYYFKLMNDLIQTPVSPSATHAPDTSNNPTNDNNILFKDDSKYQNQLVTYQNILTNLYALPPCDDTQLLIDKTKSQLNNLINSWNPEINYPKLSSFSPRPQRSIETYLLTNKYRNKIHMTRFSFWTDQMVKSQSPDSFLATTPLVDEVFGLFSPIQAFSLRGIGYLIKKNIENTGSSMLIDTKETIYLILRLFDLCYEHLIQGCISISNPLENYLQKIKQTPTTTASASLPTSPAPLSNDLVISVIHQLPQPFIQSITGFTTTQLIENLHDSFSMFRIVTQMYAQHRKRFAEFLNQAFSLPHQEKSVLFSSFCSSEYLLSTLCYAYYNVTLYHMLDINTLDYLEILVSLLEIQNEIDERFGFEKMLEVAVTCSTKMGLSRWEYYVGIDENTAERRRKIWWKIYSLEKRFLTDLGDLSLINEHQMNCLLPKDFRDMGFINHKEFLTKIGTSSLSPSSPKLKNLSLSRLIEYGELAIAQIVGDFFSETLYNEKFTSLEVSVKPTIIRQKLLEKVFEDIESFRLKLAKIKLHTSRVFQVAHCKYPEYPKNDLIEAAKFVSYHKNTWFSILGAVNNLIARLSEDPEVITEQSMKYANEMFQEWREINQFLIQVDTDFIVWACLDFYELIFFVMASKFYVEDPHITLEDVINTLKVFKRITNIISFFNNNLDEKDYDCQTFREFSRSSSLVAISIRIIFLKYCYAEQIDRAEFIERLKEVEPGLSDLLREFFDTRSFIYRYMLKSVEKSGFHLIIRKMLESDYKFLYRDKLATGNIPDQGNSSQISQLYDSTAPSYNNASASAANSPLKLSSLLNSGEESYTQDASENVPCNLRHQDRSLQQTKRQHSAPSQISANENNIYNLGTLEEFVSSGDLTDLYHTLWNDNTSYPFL
# Assay: PBM E-score (8-mer binding enrichment) (E-score (-0.5 to 0.5)); higher = stronger / more preferred TF binding; most listed sequences are background and not binding sites
# Conditions: protein concentration: 200 nM; construct: GST-full length
# Outline: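 Yeast transcription factors carrying a GST tag, as full-length proteins or DNA-binding domains, were produced by PURExpress in vitro transcription/translation. About 100-200 nM protein was applied to universal all-10-mer Agilent arrays, double-stranded by primer extension on fresh or once-stripped slides. Bound protein was detected with fluorescent anti-GST, and scans were normalised with masliner. The Universal PBM Analysis Suite gave each ungapped eight-base word, pooled with its reverse complement, an E-score, a modified Wilcoxon-Mann-Whitney statistic.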
row,Sequence,PBM E-score
1,GGACGAGA,0.119
2,AGATCCTG,-0.186
3,CAGTACCA,-0.219
4,GTTACGCA,-0.0849
5,CCGCATCA,0.179
6,CAGTGGAA,-0.109
7,CCTTAACC,-0.256
8,AATTGACG,-0.0255
9,CGGATACA,0.364
10,ACGATTAC,-0.187
11,GATTAGGC,-0.124
12,CATGGCCA,-0.192
13,CCAGAGCA,0.123
14,ATGATCGC,0.0432
15,CCCCTCTC,-0.179
16,AGCGGGAA,0.232
17,ATGACACA,-0.0379
18,CTTCCTCA,-0.175
19,AATTGATA,-0.0334
20,GCTCAGAC,-0.207
21,AACCCGTT,0.143
22,ACTCGAGT,0.0102
23,CACCCAGC,-0.0529
24,AGAATGAA,-0.0967
25,TAGTTGGA,-0.0882

row,Sequence,PBM E-score
1,TCGGCTAA,0.0364
2,AGACGGTA,-0.0491
3,GAAGCTCA,-0.0229
4,CGCCTCCC,-0.0886
5,AGGCAGCC,0.0506
6,AAAACGGG,0.319
7,AATTGGGG,0.0393
8,TACACCGA,0.00575
9,ATATGCCA,0.126
10,AACCCGGT,0.258
11,GAAAAGGC,0.0334
12,AACACATA,-0.147
13,GTGCCTGA,-0.0827
14,TCAACAAA,0.0103
15,ACGCGCAC,-0.111
16,GAAGAGCA,-0.104
17,CAAGAGCA,-0.179
18,ATCCACCA,-0.126
19,CCACGCAA,-0.0616
20,CTTGCTTA,-0.142
21,CCACCGAC,0.0367
22,AAAGAGAT,-0.216
23,TACAGATA,-0.0245
24,AATCCTGC,-0.00239
25,ACAACGGT,-0.0457

row,Sequence,PBM E-score
1,ACACGGTA,0.164
2,AAACGATG,0.0659
3,TAGCTGCA,-0.151
4,ATATGGGC,0.0741
5,ATGAGGCA,-0.151
6,GACGTTGC,0.107
7,ATATCATA,0.0878
8,ATATGCGC,0.122
9,AGGTACCC,-0.128
10,CTTATAGC,-0.178
11,CATCCAAC,-0.032
12,GCAGTCGC,-0.0644
13,ATAGGGGA,-0.0873
14,GGCCGTGA,0.23
15,CGGCACCG,0.336
16,AATGCCGC,0.33
17,CACGACTC,-0.192
18,GAACAACC,0.193
19,CAATGCTC,-0.0438
20,ATTGTAAG,-0.237
21,CAAACTTG,0.0265
22,CATAGTAG,0.00191
23,CTATGAGC,-0.185
24,AAGTCCCC,-0.0843
25,AACCCGGG,0.424

row,Sequence,PBM E-score
1,GAGGGTGA,-0.119
2,TAGCTAGA,-0.157
3,AAGTACGG,0.0612
4,ATGACGAA,-0.127
5,CTACCAGC,-0.192
6,ACTCGGAC,0.305
7,CAGAGGGC,-0.133
8,ACTACAGG,-0.0281
9,AGTTTGAG,-0.0369
10,AGTATGAA,0.2
11,AGACTGCC,-0.045
12,CACCACCG,0.0405
13,ACTAAGCT,-0.172
14,AGAAGCGG,0.0983
15,CCGTGGGC,0.296
16,AGCCAGTC,-0.0918
17,GTTGCAGA,-0.0577
18,TTCTACAA,-0.177
19,TCCCTTAA,-0.232
20,AAGATTAT,-0.033
21,CCGGGTCC,0.365
22,TAATACAA,0.0517
23,GATTATTA,0.0505
24,AATTTAGA,0.007
25,AAATCCCA,-0.0896

row,Sequence,PBM E-score
1,CCAACCGC,0.146
2,GGTGGCTA,-0.223
3,TCCGCCCA,0.305
4,TAGGTATA,0.0254
5,AAATATGC,0.0207
6,GAATGGAC,-0.0365
7,CCGTATTA,0.19
8,ATGGTGTC,-0.0482
9,ACGATTCC,0.228
10,CAATGGGA,0.02
11,ATGGTATC,0.143
12,GTTATTGA,-0.123
13,ACCCTGAC,-0.153
14,ATTCGTCA,-0.0777
15,GGATCTGA,0.0795
16,AGTATCTA,-0.0775
17,CCTTAGGC,-0.327
18,AGTGTGCG,0.094
19,CCGCTGTA,0.0822
20,CGCCCACG,0.0847
21,CAATCGCA,-0.0175
22,ACGACTCA,-0.132
23,GTCACTTA,0.0725
24,ATGGGCCG,0.0292
25,TTAATTAA,-0.169

row,Sequence,PBM E-score
1,GACGCATC,0.0379
2,CGCCTAGA,-0.0434
3,CATAGGCA,-0.0874
4,GGGAAGTA,0.097
5,TCCCCGAA,0.232
6,GGTCCTAA,-0.111
7,ACATAGCG,0.00938
8,CTTTGCAC,-0.15
9,CAGGAGAC,-0.164
10,GCATCCTA,0.00911
11,ACAGCCTA,-0.0216
12,ATCAACTG,0.047
13,AAGAGGTC,-0.0861
14,GCCGTTAA,0.0215
15,CCCGTCGG,0.324
16,GTTCACTA,-0.146
17,CAATTGCG,0.0949
18,AATGTTCC,0.249
19,AGGTCATC,-0.118
20,GCCCCAAC,0.0203
21,GAAGAGCC,0.145
22,AGTCCGTA,0.149
23,CCCCTATC,-0.162
24,ACCGCACG,-0.0867
25,ACTCGCAC,0.0753

row,Sequence,PBM E-score
1,ATATAGTG,0.0328
2,CCAGTTAC,-0.164
3,ATCCCAGG,0.113
4,CCTAAAAA,-0.0956
5,TGGCAAAA,-0.0248
6,ACAATTAT,0.0545
7,ATTTGTGG,-0.0692
8,ACCAGACT,-0.233
9,ACGAAGTG,-0.16
10,CTTAAATC,-0.106
11,TCAAGTAA,-0.222
12,GCGTTCAA,-0.198
13,ATAAGCCG,0.16
14,CTCGTTCA,-0.0847
15,AAAGCATT,-0.237
16,CCATGCAA,0.11
17,GCGACTAC,-0.0357
18,ACAACTCC,0.178
19,ACTGGCTG,0.0907
20,GGGGGACC,-0.161
21,CGATCTAA,-0.0767
22,AACCCAGT,-0.102
